Data on seven molecules can be found in paper PMC7406511.

Amino acid sequences for entries named in this document (tags omitted).
UniProt Q14457: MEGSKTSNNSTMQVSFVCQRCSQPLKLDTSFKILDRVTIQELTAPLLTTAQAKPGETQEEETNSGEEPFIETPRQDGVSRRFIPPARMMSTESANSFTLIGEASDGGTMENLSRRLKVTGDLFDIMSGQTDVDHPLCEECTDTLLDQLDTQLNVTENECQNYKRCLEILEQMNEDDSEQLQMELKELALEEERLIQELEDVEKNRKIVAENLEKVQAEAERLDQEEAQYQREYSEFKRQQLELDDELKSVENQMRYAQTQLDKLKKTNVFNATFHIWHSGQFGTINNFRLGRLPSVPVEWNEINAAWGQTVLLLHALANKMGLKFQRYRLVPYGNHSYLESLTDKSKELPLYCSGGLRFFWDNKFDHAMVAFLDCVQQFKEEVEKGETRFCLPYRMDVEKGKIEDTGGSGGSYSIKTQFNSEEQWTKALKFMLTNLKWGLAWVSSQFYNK
UniProt P06493: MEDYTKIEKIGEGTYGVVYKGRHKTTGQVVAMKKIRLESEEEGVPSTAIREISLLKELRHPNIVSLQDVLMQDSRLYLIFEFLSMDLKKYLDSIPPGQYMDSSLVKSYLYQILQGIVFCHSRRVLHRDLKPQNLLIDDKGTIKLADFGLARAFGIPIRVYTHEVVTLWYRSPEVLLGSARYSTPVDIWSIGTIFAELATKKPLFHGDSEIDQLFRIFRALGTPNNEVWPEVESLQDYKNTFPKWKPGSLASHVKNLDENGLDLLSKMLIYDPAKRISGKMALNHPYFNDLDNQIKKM
UniProt O96017: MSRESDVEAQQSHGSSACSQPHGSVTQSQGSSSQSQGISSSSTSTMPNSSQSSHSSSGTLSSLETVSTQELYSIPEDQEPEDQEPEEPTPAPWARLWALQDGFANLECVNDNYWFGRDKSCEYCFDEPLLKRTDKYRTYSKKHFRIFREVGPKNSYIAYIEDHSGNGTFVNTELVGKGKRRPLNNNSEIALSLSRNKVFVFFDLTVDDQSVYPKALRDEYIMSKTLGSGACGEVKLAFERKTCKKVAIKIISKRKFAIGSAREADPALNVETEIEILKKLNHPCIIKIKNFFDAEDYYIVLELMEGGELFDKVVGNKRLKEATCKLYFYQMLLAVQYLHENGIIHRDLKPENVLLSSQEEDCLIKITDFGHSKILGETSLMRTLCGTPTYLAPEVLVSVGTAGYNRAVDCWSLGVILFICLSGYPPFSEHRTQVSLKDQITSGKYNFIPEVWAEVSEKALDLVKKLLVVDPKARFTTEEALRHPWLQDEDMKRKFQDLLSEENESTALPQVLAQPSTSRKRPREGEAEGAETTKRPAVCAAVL
UniProt P10415: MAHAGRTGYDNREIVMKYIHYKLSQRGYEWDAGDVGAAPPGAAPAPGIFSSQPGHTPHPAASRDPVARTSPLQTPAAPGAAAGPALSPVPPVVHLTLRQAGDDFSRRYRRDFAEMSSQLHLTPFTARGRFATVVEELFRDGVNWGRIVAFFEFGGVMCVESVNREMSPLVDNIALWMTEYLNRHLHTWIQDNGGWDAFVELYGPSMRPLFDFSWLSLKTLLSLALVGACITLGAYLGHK
UniProt P14635: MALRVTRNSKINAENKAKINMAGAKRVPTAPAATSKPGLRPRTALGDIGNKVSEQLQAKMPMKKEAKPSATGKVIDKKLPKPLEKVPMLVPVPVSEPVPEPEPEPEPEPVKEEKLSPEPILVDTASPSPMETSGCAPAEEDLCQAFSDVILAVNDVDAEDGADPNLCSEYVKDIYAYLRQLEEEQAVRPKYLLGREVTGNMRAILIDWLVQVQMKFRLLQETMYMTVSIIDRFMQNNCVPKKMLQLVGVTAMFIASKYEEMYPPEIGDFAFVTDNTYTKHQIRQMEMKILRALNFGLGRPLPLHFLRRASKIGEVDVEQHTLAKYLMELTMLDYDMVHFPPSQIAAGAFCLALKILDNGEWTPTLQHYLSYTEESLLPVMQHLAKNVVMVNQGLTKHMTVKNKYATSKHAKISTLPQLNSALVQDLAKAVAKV
UniProt P30291: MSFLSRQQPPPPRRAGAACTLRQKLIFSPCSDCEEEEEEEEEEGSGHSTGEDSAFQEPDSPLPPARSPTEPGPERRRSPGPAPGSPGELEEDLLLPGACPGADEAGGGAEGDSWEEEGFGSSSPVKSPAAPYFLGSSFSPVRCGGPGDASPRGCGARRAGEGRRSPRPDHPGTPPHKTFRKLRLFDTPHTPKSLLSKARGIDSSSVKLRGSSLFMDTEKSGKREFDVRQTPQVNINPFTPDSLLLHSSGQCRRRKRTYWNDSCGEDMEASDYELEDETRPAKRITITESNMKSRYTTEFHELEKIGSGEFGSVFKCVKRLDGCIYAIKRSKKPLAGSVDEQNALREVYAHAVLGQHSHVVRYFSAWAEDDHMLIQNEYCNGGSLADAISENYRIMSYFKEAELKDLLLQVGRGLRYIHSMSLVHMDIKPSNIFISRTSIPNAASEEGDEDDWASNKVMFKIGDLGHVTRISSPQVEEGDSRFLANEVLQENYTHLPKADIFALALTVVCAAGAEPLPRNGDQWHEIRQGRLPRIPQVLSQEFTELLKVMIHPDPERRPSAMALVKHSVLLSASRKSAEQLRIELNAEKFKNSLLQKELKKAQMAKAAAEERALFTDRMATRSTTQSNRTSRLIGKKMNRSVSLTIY

These are yes or no findings as the source states them, for the method shown. In cells and extracts the contact can be indirect. Some entries that bind do so weakly or less than the wild type. For some of these results: Where a sequence is shown, tags or fusion partners need not be part of it.

Assay [1] addresses BECN1 (human (endogenous in MDA-MB-231)) (UniProt Q14457). Put plainly: co-IP; anti-BECN1 immunoprecipitates from MDA-MB-231 cells with or without 4-Gy irradiation; western blot with the indicated antibodies. A general note: In western blotting, separated proteins are transferred to a membrane and probed.
The target is the same in assay [2]. Briefly: co-IP; nuclear fraction of MDA-MB-231 cells with or without 4-Gy irradiation; immunoprecipitates with anti-BECN1, anti-CHK2 or anti-CDC25C; western blot with anti-CDC25C and anti-CHK2.
Assay [3] concerns the target Flag-BECN1 (UniProt Q14457). Briefly: co-IP; Flag-BECN1 and its deletion mutants overexpressed in MDA-MB-231 cells; immunoprecipitation with a flag antibody.
The target in assay [4] is BECN1 (human (endogenous in MDA-MB-231)) (UniProt Q14457). Put plainly: co-IP; cytoplasmic fraction of MDA-MB-231 cells with or without 4-Gy irradiation; immunoprecipitates with anti-BECN1, anti-CHK2 or anti-CDC25C; western blot with anti-CDC25C and anti-CHK2.
Assay [5] has as its target T1, CDC25C (human (endogenous in MDA-MB-231)) (UniProt P30307).
T1 sequence: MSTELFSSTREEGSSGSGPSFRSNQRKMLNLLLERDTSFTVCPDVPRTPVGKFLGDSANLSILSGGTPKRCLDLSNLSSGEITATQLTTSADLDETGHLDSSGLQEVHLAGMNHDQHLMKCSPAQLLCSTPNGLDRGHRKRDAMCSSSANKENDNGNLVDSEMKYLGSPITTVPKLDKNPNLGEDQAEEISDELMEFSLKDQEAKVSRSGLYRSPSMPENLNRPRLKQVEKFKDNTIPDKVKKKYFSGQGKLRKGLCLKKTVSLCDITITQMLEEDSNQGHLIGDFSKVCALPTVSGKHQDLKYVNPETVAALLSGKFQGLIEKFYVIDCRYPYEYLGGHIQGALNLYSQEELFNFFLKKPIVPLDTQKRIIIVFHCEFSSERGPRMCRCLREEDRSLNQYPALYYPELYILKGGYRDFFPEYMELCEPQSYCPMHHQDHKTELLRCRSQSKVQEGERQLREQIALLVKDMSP
Briefly: co-IP; anti-CDC25 immunoprecipitates from BECN1-WT cells and from BECN1-KO MDA-MB-231 cells overexpressing Flag-BECN1 or its mutants, with or without irradiation; western blot with anti-CDC25C and anti-CHK2.

In assay [6] the target is T2, Flag-CDC25C (UniProt P30307).
T2 sequence: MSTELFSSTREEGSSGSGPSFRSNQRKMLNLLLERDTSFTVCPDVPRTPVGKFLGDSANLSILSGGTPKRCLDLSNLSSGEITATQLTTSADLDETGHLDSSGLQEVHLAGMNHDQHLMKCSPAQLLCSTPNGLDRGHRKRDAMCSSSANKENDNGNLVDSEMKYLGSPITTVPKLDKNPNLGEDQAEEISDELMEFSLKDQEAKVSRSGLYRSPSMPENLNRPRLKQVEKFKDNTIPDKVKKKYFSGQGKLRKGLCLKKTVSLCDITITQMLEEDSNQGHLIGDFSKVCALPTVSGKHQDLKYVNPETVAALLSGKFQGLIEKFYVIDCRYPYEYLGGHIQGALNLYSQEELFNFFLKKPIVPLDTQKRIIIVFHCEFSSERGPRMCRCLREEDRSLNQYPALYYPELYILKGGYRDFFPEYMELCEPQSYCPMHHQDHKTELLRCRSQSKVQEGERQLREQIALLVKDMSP
Briefly: co-IP; BECN1-WT and BECN1-KO cells transfected with Flag- or HA-tagged expression vectors, with or without irradiation, BECN1 re-expressed in KO cells; immunoprecipitation with anti-HA or anti-Flag; western blot with anti-Flag, anti-HA, anti-CDK1 and anti-CCNB1.

In assay [7] the target is CDK1 (human (endogenous in MDA-MB-231)) (UniProt P06493). Put plainly: co-IP; anti-CDK1 immunoprecipitates from lysates of BECN1-WT and BECN1-KO MDA-MB-231 cells (DMSO or 3-MA; with or without 4-Gy irradiation; BECN1 re-expressed in KO cells); lysis in PBS buffer with 50 nM Tris-base, 1 mM EDTA, 1% NP-40; Pierce Classic IP Kit; western blot.
The target in assay [8] is HA-CHK2 (UniProt O96017). Put plainly: co-IP; BECN1-WT and BECN1-KO cells transfected with Flag- or HA-tagged expression vectors, with or without irradiation, BECN1 re-expressed in KO cells; immunoprecipitation with anti-HA or anti-Flag; western blot with anti-Flag, anti-HA, anti-CDK1 and anti-CCNB1.

Consider BCL2 (from UniProt P10415 1-239), for which the binding entry in assay [1] is “binds”.
Still for that read-out and setting: the result for CCNB1 (from UniProt P14635 1-433) reads “no binding”.
As to “CHK2 (from UniProt O96017 1-543) (enzyme)”, the binding entry in assay [2] is reported as “binds”; in assay [1], “binds”; in assay [3], “binds”; in assay [4], “no binding (condition: in the cytoplasmic fraction)”; in assay [5], “binds”.
In the case of “HA-CHK2 (from UniProt O96017 1-543) (enzyme)”, the binding result in assay [6] is given as “binds”.
For the molecule “WEE1 (from UniProt P30291 1-646) (enzyme)”, the values for the binding entry in assay [1] and in assay [7] were “no binding” and “binds”, respectively.

B1: CDC25C (enzyme, UniProt P30307 1-473)
chain: MSTELFSSTREEGSSGSGPSFRSNQRKMLNLLLERDTSFTVCPDVPRTPVGKFLGDSANLSILSGGTPKRCLDLSNLSSGEITATQLTTSADLDETGHLDSSGLQEVHLAGMNHDQHLMKCSPAQLLCSTPNGLDRGHRKRDAMCSSSANKENDNGNLVDSEMKYLGSPITTVPKLDKNPNLGEDQAEEISDELMEFSLKDQEAKVSRSGLYRSPSMPENLNRPRLKQVEKFKDNTIPDKVKKKYFSGQGKLRKGLCLKKTVSLCDITITQMLEEDSNQGHLIGDFSKVCALPTVSGKHQDLKYVNPETVAALLSGKFQGLIEKFYVIDCRYPYEYLGGHIQGALNLYSQEELFNFFLKKPIVPLDTQKRIIIVFHCEFSSERGPRMCRCLREEDRSLNQYPALYYPELYILKGGYRDFFPEYMELCEPQSYCPMHHQDHKTELLRCRSQSKVQEGERQLREQIALLVKDMSP
For the molecule B1, the binding result in assay [2] is “binds”; in assay [1], “binds”; in assay [3], “binds”; in assay [7], “binds”; in assay [4] it was “no binding (condition: in the cytoplasmic fraction)”.

B2: Flag-CDC25C (enzyme, UniProt P30307 1-473)
chain: MSTELFSSTREEGSSGSGPSFRSNQRKMLNLLLERDTSFTVCPDVPRTPVGKFLGDSANLSILSGGTPKRCLDLSNLSSGEITATQLTTSADLDETGHLDSSGLQEVHLAGMNHDQHLMKCSPAQLLCSTPNGLDRGHRKRDAMCSSSANKENDNGNLVDSEMKYLGSPITTVPKLDKNPNLGEDQAEEISDELMEFSLKDQEAKVSRSGLYRSPSMPENLNRPRLKQVEKFKDNTIPDKVKKKYFSGQGKLRKGLCLKKTVSLCDITITQMLEEDSNQGHLIGDFSKVCALPTVSGKHQDLKYVNPETVAALLSGKFQGLIEKFYVIDCRYPYEYLGGHIQGALNLYSQEELFNFFLKKPIVPLDTQKRIIIVFHCEFSSERGPRMCRCLREEDRSLNQYPALYYPELYILKGGYRDFFPEYMELCEPQSYCPMHHQDHKTELLRCRSQSKVQEGERQLREQIALLVKDMSP
With B2, the binding entry in assay [8] is recorded as “binds”.
